# Reference: publication PMC12040169 (PLOS Biology, 2025)
# The list shows a part of the results.
# System: T1, C. trachomatis L2/434/Bu expressing GFP (CTL2-GFP)
# T1 construct: L2/434/Bu GFP intracellular growth in HeLa cells
# Set-up: species or system HeLa; C. trachomatis total inclusion area by high-content imaging, normalised to DMSO
# Details: total inclusion area; 28.5 h, 10 µM; inhibitor
# In short: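 Host cell viability was gauged from Hoechst-stained nuclei counts, while chlamydial growth was taken from total inclusion area and inclusion number per well. Cells were fixed and imaged by high-content microscopy once bulk GFP and resorufin fluorescence had been measured.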
row,Compound,% of control remaining
1,COc1ccccc1-c1cn2ccnc2c(N2CCCC2CO)n1 (stereo not shown) [CBK037266],112.263
2,O=C1CC(N2CCN(Cc3ccc4c(c3)OCO4)CC2)C(=O)N1c1ccc(Cl)c(Cl)c1 (stereo not shown) [CBK074549],84.2093
3,COc1ccc(C(=O)[C@H]2CCCN(C(=O)c3ccco3)C2)cc1 [CBK284327],80.6239
4,O=[N+]([O-])c1cc(S(=O)(=O)Nc2cccc3ccccc23)ccc1N1CCNCC1 [CBK015584C],83.5844
5,CC(C)Nc1nc2ccccc2nc1OC1CCN(C)C1 (stereo not shown) [CBK113283],96.5212
6,C/C(=N\O)c1oc2ccccc2c(=O)c1O [CBK010642],67.4444
7,CCOC(=O)C(NC(=O)CC)(Nc1cc(C)on1)C(F)(F)F (stereo not shown) [CBK025721],71.4044
8,COc1cc(OC)c(NC(=O)CN(C)S(=O)(=O)c2cc(Cl)ccc2Cl)cc1Cl [CBK267399],107.385
9,COc1cc(NC(=S)N2CCN(c3cc(Cl)ccc3C)CC2)cc(OC)c1 [CBK266252],89.3089
10,O=C(Nc1ccc(-c2nc(-c3ccccc3)c3cc(NC(=O)c4cccs4)ccc3n2)cc1)c1cccs1 [CBK261547],121.949
11,N=C1NC(=O)/C(=C\c2cccc(C(=O)O)c2)S1 [CBK264832],108.253
12,COc1cccc(NC(=O)CCN2C(=O)c3ccccc3S2(=O)=O)c1 [CBK266003],75.8755
13,COc1ccc(-n2c(C)c(C#N)c3cc(Br)c(O)c(Br)c32)cc1 [CBK101113],87.3716
14,O=C(NC(Cc1ccsc1)c1cccnc1)C1CCOC1 (stereo not shown) [CBK285116],95.598
15,O=C(NCc1ccc(-c2csnn2)cc1)c1cccnc1 [CBK149309],107.381
16,CC(C(=O)O)c1cc(C(=O)c2ccccc2)sc1-c1ccccc1 (stereo not shown) [CBK260968],100.776
17,Cc1cc(C)n(C(C)CC(=O)NC(C)c2nc3ccccc3s2)n1 (stereo not shown) [CBK281469],95.5045
18,CC(=O)Nc1cccc(-n2nnnc2SCc2noc(C)n2)c1 [CBK304599],54.7786
19,NNC(=O)C(Oc1ccccc1)Oc1ccccc1 [CBK261210],93.5528
20,COc1ccc(CNc2nc[nH]n2)c(OC)c1OC [CBK288129],104.615
21,O=C(CS(=O)(=O)c1ccccc1)Nc1cnc(-c2ccc(F)cc2)c(-c2ccoc2)n1 [CBK037168],116.969
22,CCc1cccc(C)c1NC(=O)CN(c1cccc(Cl)c1Cl)S(=O)(=O)c1ccc(C)cc1 [CBK268666],104.914
